Test results from the supplement of paper PMC7266297.
Counter-ions that a name gives are not always drawn. The list shows a part of the results. Many values rest on one well or one pass, so single values are uncertain.

Columns and labels:
KB-3-1 = experiment: growth inhibition relative to DMSO control (SRB); cervical cancer cells: KB-3-1 is the parent and KB-V1 overexpresses MDR1; SRB is the sulforhodamine B stain; higher = more growth inhibition; settings: 1 µM; 72 h
KB-V1 = experiment: as above; settings: 1 µM; 72 h
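Also: Read-out is SRB optical density at 490 nm, with the control being wells given 0.5% DMSO vehicle, and compound added one day after cells were plated.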

| Compound | growth inhibition (KB-3-1) [%] | growth inhibition (KB-V1) [%] |
| --- | --- | --- |
| COCCOc1ccc2c(c1)ncn2-c1ccc2cccc(N3CCC(N)CC3)c2n1 | 68.5 | 18.4 |
| CNC(=O)c1nn(C)c2c1C(C)(C)Cc1cnc(Nc3ccc(N4CCN(C)CC4)cc3)nc1-2 | < 0 | 64.6 |
| Cc1cnc(Nc2ccc(OCCN3CCCC3)cc2)nc1Nc1cccc(S(=O)(=O)NC(C)(C)C)c1 | < 0 | < 0 |
| Nc1ccn([C@@H]2CS[C@H](CO)O2)c(=O)n1 [Lamivudine] | 41.4 | 14.5 |
| CCOC(=O)OC(C)OC1=C(C(=O)Nc2ccccn2)N(C)S(=O)(=O)c2ccccc21 (stereo not given) [Ampiroxicam] | < 0 | < 0 |
| Cc1cc(C#N)cc(C)c1Oc1nc(Nc2ccc(C#N)cc2)nc(N)c1Br [Etravirine (TMC125)] | < 0 | 29.9 |
| Oc1ccc([C@H]2COc3cc(O)ccc3C2)cc1 [Equol] | 28.7 | 13.5 |
| Cn1cc(/C=C/C(=O)c2cccc(F)c2)cc1/C=C/C(=O)NO | 23.9 | 14.7 |
| Nc1ccc(C(=O)Nc2cccc(-c3nc(N4CCOCC4)c4oc5ncccc5c4n3)c2)cn1 | 70.7 | 66.9 |
| O=C(O)Cc1cccc(OCCCN(Cc2cccc(C(F)(F)F)c2Cl)CC(c2ccccc2)c2ccccc2)c1 | 26 | < 0 |
| CNC(=O)c1cc(COc2nnc(Nc3ccc(Cl)cc3)c3ccoc23)ccn1 [Telatinib] | < 0 | 17.8 |
| Cc1cccc(-c2nn3c(c2-c2ccnc4ccc(C(N)=O)cc24)CCC3)n1 | < 0 | 6.54 |
| Cc1cc(OCc2nnc(SC3CCCC3)n2-c2cccnc2)ccc1-c1ccc(S(C)(=O)=O)cc1 | 58.6 | 71.8 |
| C[C@H](NC(=O)/C(C#N)=C/c1cccc(Br)n1)c1ccccc1 | 13.5 | 37.5 |
| Cc1cccc(-c2[nH]c(C(C)(C)C)nc2-c2ccc3c(c2)OCO3)n1 | 33.7 | 62.6 |
| COc1ccc([C@]2(C#N)CC[C@@H](C(=O)O)CC2)cc1OC1CCCC1 [Cilomilast] | 13.2 | 34 |
| Cc1nnc(C(=O)NC(C)(C)c2nc(C(=O)NCc3ccc(F)cc3)c(O)c(=O)n2C)o1 [Raltegravir (MK-0518)] | 48.5 | 18.9 |
| CC[C@@H]1C(=O)N(C)c2cnc(Nc3ccc(C(=O)N[C@H]4CC[C@H](N5CCN(CC6CC6)CC5)CC4)cc3OC)nc2N1C(C)C [Volasertib (BI 6727)] | 86.4 | 73.8 |
| Cc1ccc(S(=O)(=O)c2ccc([N+](=O)[O-])o2)cc1 | < 0 | < 0 |
| O=C1c2ccccc2C(=O)c2c1ccc(O)c2O [Alizarin] | 28.7 | 5.32 |
| Cc1cc(Nc2nc(N[C@@H](C)c3ccc(F)cc3)c(C#N)cc2F)n[nH]1 | 50 | 96.3 |
| Cn1cc(-c2ccc3nnc(Sc4ccc5ncccc5c4)n3n2)cn1 | 12 | 29 |
| Clc1ccc(C2(c3ccc(-c4cn[nH]c4)cc3)CCNCC2)cc1 | 42.8 | 39.8 |
| O[C@@H](COc1cccc2ncccc12)CN1CCN(C2c3ccccc3[C@@H]3[C@H](c4ccccc42)C3(F)F)CC1 (stereo not given in full) | 28.1 | 23.7 |
| N#C[C@@H]1CCCN1C(=O)CNC12CC3CC(CC(O)(C3)C1)C2 [Vildagliptin (LAF-237)] | < 0 | < 0 |

| Compound | growth inhibition (KB-3-1) [%] | growth inhibition (KB-V1) [%] |
| --- | --- | --- |
| COc1ccccc1Oc1c(NS(=O)(=O)c2ccc(C(C)(C)C)cc2)nc(-c2ncccn2)nc1OCCO [Bosentan Hydrate] | < 0 | < 0 |
| O=C1NC(=O)/C(=C/c2ccc(-c3ccc(F)cc3O)o2)S1 | < 0 | < 0 |
| COc1ccc2[nH]c([S+]([O-])Cc3ncc(C)c(OC)c3C)nc2c1 (stereo not given) [Omeprazole] | 10.4 | 28.8 |
| CN(C)C(=O)[C@H](O)[C@H](Cc1ccccc1)NC(=O)c1cc2cc(Cl)ccc2[nH]1 | < 0 | 7.81 |
| CN1CCN(CCCN2c3ccccc3Sc3ccc(C(F)(F)F)cc32)CC1 [Trifluoperazine 2HCl] | < 0 | 11 |
| COc1ccc([C@@H]2CC(=O)c3c(O)cc(O)cc3O2)cc1O [Hesperetin] | < 0 | 2.8 |
| Nc1nc2ccc(OC(F)(F)F)cc2s1 [Riluzole] | 31.7 | 14.1 |
| COc1ncc(-c2ccc3nccc(-c4ccnnc4)c3c2)cc1NS(=O)(=O)c1ccc(F)cc1F | 100 | 82.7 |
| O=C(NCc1ccccc1)c1csc(Nc2ccncn2)n1 [Thiazovivin] | 17.6 | 46 |
| NCCc1c[nH]cn1 [Histamine 2HCl] | 34.1 | 3.36 |
| Cc1cc(CN2CCN(c3c(Br)cnc4nc(-c5ccc(N6CCN(C)CC6)cc5)[nH]c34)CC2)no1 | < 0 | 38.5 |
| O=c1ncn2nc(Sc3ccc(F)cc3F)ccc2c1-c1c(Cl)cccc1Cl | 21.2 | 43 |
| C[N+]1(C)[C@@H]2C[C@@H](OC(=O)C(O)(c3cccs3)c3cccs3)C[C@H]1[C@@H]1O[C@@H]12 [Tiotropium Bromide hydrate] | 24.2 | 7.45 |
| Oc1cc(O)cc(/C=C/c2ccc(O)c(O)c2)c1 [Piceatannol] | < 0 | 4.15 |
| CN(C)C(=O)Nc1cccc(-c2ccc(N(C)C)cc2)c1 [Atglistatin] | < 0 | < 0 |
| CC(=O)Oc1cc(C(F)(F)F)ccc1C(=O)O [Triflusal] | < 0 | 2.2 |
| COc1ccc(CNCc2cccc3ccccc23)cc1 | 12.4 | 13.3 |
| Nc1cc(F)ccc1NC(=O)/C=C/c1cnn(C/C=C/c2ccccc2)c1 | < 0 | < 0 |
| CC(C)CC(=O)Nc1n[nH]c2c1CN(C(=O)C1CCN(C)CC1)C2(C)C | 95.3 | 39 |
| Clc1ccc2c(c1)CCc1cccnc1C2=C1CCNCC1 [Desloratadine] | < 0 | < 0 |
| O=C(c1cccc(Cl)c1F)N1CCN(Cc2cccc(Nc3nccs3)n2)CC1 | 95.3 | 84.8 |
| COc1ccc(-c2oc3c(CC=C(C)C)c(O[C@@H]4O[C@H](CO)[C@@H](O)[C@H](O)[C@H]4O)cc(O)c3c(=O)c2O[C@@H]2O[C@@H](C)[C@H](O)[C@@H](O)[C@H]2O)cc1 [Icariin] | < 0 | < 0 |
| CNC(=C[N+](=O)[O-])NCCSCc1csc(CN(C)C)n1 [Nizatidine] | 45.3 | 25.2 |
| Nc1nc(Nc2ccc(S(N)(=O)=O)cc2)nn1C(=O)c1c(F)cccc1F | 70.6 | 44.8 |
| NC(=O)C(c1ccccc1)(c1ccccc1)[C@@H]1CCN(CCc2ccc3c(c2)CCO3)C1 [Darifenacin HBr] | 2.81 | 3.83 |

| Compound | growth inhibition (KB-3-1) [%] | growth inhibition (KB-V1) [%] |
| --- | --- | --- |
| Cc1cc(NC(=O)Nc2ccc(N(C)C)cc2)c2cc(F)cc(F)c2n1 | 19 | 10.9 |
| CCOc1ccn(-c2ccc(F)cc2)c(=O)c1C(=O)Nc1ccc(Oc2ccnc(N)c2Cl)c(F)c1 | 30.7 | 19.3 |
| CCCCCCCCCCCC1=C(O)C(=O)C=C(O)C1=O [Embelin] | 2.56 | 11 |
| CNC(=O)CN1CCC(Oc2cc3c(Nc4cccc(Cl)c4F)ncnc3cc2OC)CC1 [AZD8931 (Sapitinib)] | 0.943 | 29 |
| Cc1[nH]c2ccccc2c1CCNC(=O)c1cccs1 | 47.5 | 9.26 |
| Cc1ccc(NC(=O)c2ccc(CN3CCN(C)CC3)cc2)cc1Nc1nc(-c2cccnc2)cs1 [Masitinib (AB1010)] | 9.73 | 35.4 |
| CO[C@@H](C(=O)N1Cc2[nH]nc(NC(=O)c3ccc(N4CCN(C)CC4)cc3)c2C1)c1ccccc1 | 84.1 | 50.5 |
| O=C(NC(NC(=S)Nc1ccc(F)c([N+](=O)[O-])c1)C(Cl)(Cl)Cl)C(c1ccccc1)c1ccccc1 (stereo not given) | < 0 | < 0 |
| Cc1nnc(C(C)C)n1C1C[C@H]2CC[C@@H](C1)N2CC[C@H](NC(=O)C1CCC(F)(F)CC1)c1ccccc1 (stereo in doubt) [Maraviroc] | 46.8 | 20.1 |
| O=C(c1cncc(Br)c1)N1CCC(N2CCCC2)CC1 | 50.2 | < 0 |
| COc1ccc(C(=O)Nc2sc3c(c2C(N)=O)CCCC3)cc1OC | 42.2 | 3.09 |
| N#C/C(=C(/N)Sc1ccc(N)cc1)c1ccccc1C(F)(F)F | 23.3 | 26.2 |
| CNC(=O)c1cc(Oc2ccc(NC(=O)Nc3ccc(Cl)c(C(F)(F)F)c3)cc2)ccn1 [Sorafenib Tosylate] | 6.63 | 17.8 |
| CCOC(=O)c1ccc(N2NC(=O)C(=Cc3ccc([N+](=O)[O-])o3)C2=O)cc1 | 19.1 | 3.19 |
| O=C(c1ccccc1)c1ccc2n1CCC2C(=O)O (stereo not given) [Ketorolac] | 37.8 | 13.5 |
| CCN(CC)CCOC(=O)c1ccc(N)cc1 [Procaine HCl] | < 0 | < 0 |
| CCC(CC)CC1(C(=O)Nc2ccccc2SC(=O)C(C)C)CCCCC1 | < 0 | < 0 |
| O=C(c1ccc(OCCN2CCCCC2)cc1)c1c(-c2ccc(O)cc2)sc2cc(O)ccc12 [Raloxifene HCl] | 35.6 | 43.1 |
| CN1C(C(=O)Nc2ccccn2)=C(O)c2ccccc2S1(=O)=O [Piroxicam] | 40.7 | 14.2 |
| Fc1cc(-c2cccc3ncc(-c4cnn(C5CCNCC5)c4)nc23)cc(F)c1CN1CCOCC1 | < 0 | 4.69 |
| CC(=O)O[C@]1(C(C)=O)CC[C@H]2[C@@H]3C=C(Cl)C4=CC(=O)[C@@H]5C[C@@H]5[C@]4(C)[C@H]3CC[C@@]21C [Cyproterone Acetate] | 20.8 | 20.8 |
| CCc1ccc(/C=C2/SC(=S)NC2=O)cc1 | < 0 | < 0 |
| O=c1cc(N2CCOCC2)oc2c1ccc1ccccc12 | 13.5 | < 0 |
| CCS(=O)(=O)N1CC(CC#N)(n2cc(-c3ncnc4[nH]ccc34)cn2)C1 | 22 | 29.7 |
| CN(C)C1CCN(C(=O)c2ccc(NC(=O)Nc3ccc(-c4nc(N5CCOCC5)nc(N5CCOCC5)n4)cc3)cc2)CC1 | 65.2 | 42.7 |
